T1: Recombinant Human IL-10Rα (R&D systems 9100-R1) (human, UniProt Q13651 22-235)
T1 construct: Coated on the ELISA plate at 0.8 µg/ml
T1 sequence (looked up): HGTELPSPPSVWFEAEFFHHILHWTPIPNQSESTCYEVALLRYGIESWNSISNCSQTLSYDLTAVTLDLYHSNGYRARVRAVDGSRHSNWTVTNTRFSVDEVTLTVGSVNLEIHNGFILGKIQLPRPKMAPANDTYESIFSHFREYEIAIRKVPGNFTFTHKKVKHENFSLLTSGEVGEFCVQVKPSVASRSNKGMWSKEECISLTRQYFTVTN

B1: IL10 (R104Q)-Fc (Fc fusion)
chain: SPGQGTQSENSCTHFPGNLPNMLRDLRDAFSRVKTFFQMKDQLDNLLLKESLLEDFKGYLGCQALSEMIQFYLEEVMPQAENQDPDIKAHVNSLGENLKTLRLQLRRCHRFLPCENKSKAVEQVKNAFNKLQEKGIYKAMSEFDIFINYIEAYMTMKIRNGGGGSGGGGSGGGG[human IgG1 Fc not written out]
B2: IL10 (R107A)-Fc (Fc fusion)
chain: SPGQGTQSENSCTHFPGNLPNMLRDLRDAFSRVKTFFQMKDQLDNLLLKESLLEDFKGYLGCQALSEMIQFYLEEVMPQAENQDPDIKAHVNSLGENLKTLRLRLRACHRFLPCENKSKAVEQVKNAFNKLQEKGIYKAMSEFDIFINYIEAYMTMKIRNGGGGSGGGGSGGGG[human IgG1 Fc not written out]
B3: IL10 (R107E)-Fc (Fc fusion)
chain: SPGQGTQSENSCTHFPGNLPNMLRDLRDAFSRVKTFFQMKDQLDNLLLKESLLEDFKGYLGCQALSEMIQFYLEEVMPQAENQDPDIKAHVNSLGENLKTLRLRLRECHRFLPCENKSKAVEQVKNAFNKLQEKGIYKAMSEFDIFINYIEAYMTMKIRNGGGGSGGGGSGGGG[human IgG1 Fc not written out]
B4: IL10 (R107Q)-Fc (Fc fusion)
chain: SPGQGTQSENSCTHFPGNLPNMLRDLRDAFSRVKTFFQMKDQLDNLLLKESLLEDFKGYLGCQALSEMIQFYLEEVMPQAENQDPDIKAHVNSLGENLKTLRLRLRQCHRFLPCENKSKAVEQVKNAFNKLQEKGIYKAMSEFDIFINYIEAYMTMKIRNGGGGSGGGGSGGGG[human IgG1 Fc not written out]

The binders below were run against T1, Recombinant Human IL-10Rα (R&D systems …) (assay: ELISA, coated receptor (told again with the CD8+ T cell assay)).
Protocol: To further characterize IL10-Fc fusion comprising IL10 variants, all fusion proteins were further purified by gel filtration chromatography on a Superdex 200 Increase 10/300 GL column (GE Healthcare) with 1×PBS to remove aggregates. For the binding test, the IL10 (WT)-Fc or muteins were serial diluted with 1×PBS, then 100 μl were added to each well coated with 0.8 μg/ml Recombinant Human IL-10Rα (R&D systems 9100-R1) or 0.1 μg/ml Recombinant Human IL-10Rβ (Sinobiological 10945-H08H). The plate was incubated at 37° C. for 1.5 hours and unbound IL10-Fc were washed away with 1× PBST for three times. Addition of HRP-conjugated anti-human Fc antibody and incubated at 37° C. for one hour. Washed away excess detection antibody and added 3,3′,5,5′-tetramethylbenzidine to each well. After incubation, add equal volume of stopping solution (2M H₂SO₄) and read absorbance at 450/650 nm. […] We also used the IL-10Rα binding ELISA to investigate the of freeze-thaw stability of IL10 (R104Q)-Fc. IL10-Fc fusion protein in PBS was freeze-thawed five times. The cycles consisted of placing samples at −70° C. more than 24 hours. The next day, the sample were thawed at room temperature for at least 1 hour. […] In contrast, the binding of IL10 (R104Q)-Fc to human IL-10Rα was not changed after five freeze-thawing treatment.

Binding result, binds:
B1, B2, B3, B4

From patent publication US20240408177A1 (ELLXIRON IMMUNOTHERAPEUTICS HONG KONG, published 2024)
